The structures appear in SMILES notation. Among all 340,000 compounds or so, about 6,900 (2%) were called active. No stated cut-off is given here; in the data, active means inhibition above about 30%; inactive means below that, where a call was filed. The entries are a selection whose mix differs from that of the whole data set. The source gives no active or inactive call for entries shown without one.

This test concerns the target D(2) dopamine receptor (Homo sapiens) (UniProt P14416). The test is described as follows: HTS Assay for Allosteric Antagonists of the Human D2 Dopamine Receptor: Primary Screen for Antagonists. Further: 0% is about no effect. To be noted: HEK293 TREx D2 cells, calcium flux, dopamine EC80; at 10 µM; stronger effect = higher value. In short, it runs like this: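 Tetracycline-induced HEK293 TREx cells expressing D2 receptor forced-coupled to calcium signalling, loaded with no-wash calcium dye. Compounds added and calcium flux read 180 s, then dopamine added at EC80 and read a further 180 s.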
Sequence of UniProt P14416 (P14416 whole entry, looked up): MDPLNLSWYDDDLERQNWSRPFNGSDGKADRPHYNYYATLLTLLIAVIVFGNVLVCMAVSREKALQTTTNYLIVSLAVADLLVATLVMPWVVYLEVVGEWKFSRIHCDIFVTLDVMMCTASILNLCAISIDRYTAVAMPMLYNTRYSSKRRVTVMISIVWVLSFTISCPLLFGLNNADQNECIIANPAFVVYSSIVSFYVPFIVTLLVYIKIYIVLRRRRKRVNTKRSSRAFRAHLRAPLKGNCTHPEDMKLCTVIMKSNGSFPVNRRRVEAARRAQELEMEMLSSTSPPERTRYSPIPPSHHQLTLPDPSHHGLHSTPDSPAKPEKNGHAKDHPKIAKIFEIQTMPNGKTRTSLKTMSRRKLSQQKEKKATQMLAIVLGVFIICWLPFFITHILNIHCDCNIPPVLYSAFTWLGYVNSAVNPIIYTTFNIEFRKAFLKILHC
By inhibition is commonly meant the change of the read-out against control, counted positive when it falls. `CCCc1nn2c(=O)cc(COC(=O)CNC(=O)COc3ccc(C)cc3)nc2s1`: the inhibition is -5.21%.
For `COc1cc(OC)c(N(C)C(=O)Nc2cn(CC(C)C)c(=O)c3ccccc23)cc1Cl` the value was -4.07%; for `Cc1ccc(-c2nc(C)c(CCNC(=O)c3ccccc3Br)s2)cc1`, 8.61%; for `COc1ccc(NC2=C(c3ccc(C(F)(F)F)cc3)C(=O)c3ccccc32)cc1`, -7.54%.
Regarding `COc1cccc(NC(=O)CN2C(=O)c3ccccc3Sc3ncccc32)c1`, the inhibition came out at 12.9%.
The value for `Cc1ccc(-n2nc(C)c3c(C(F)(F)F)cc(-c4cccnc4)nc32)cc1Cl` was -0.178%; that for `COc1ccccc1C(=O)Nc1c(C(=O)NC(C)(C)C)oc2ccccc12` was -10.1%.
The value for `CCCN(Cc1cc2cccc(C)c2[nH]c1=O)C(=O)c1cccc(Cl)c1` was -4.83%; that for `Cc1cccc(NC(=O)C2CCCN(C(=O)Nc3ccc(F)cc3)C2)c1` (stereo not drawn) was active: 31.3%; that for `CCOC(=O)C1(CC2CC2)CCN(Cc2cn(C)c3ccccc23)CC1` was active: 30.3%.
Consider `Cc1ccc(CSc2cn(CC(=O)N3CCCCCC3)c3ccccc23)cc1`, for which the inhibition is -11.7%.
As for `CCOc1ccccc1CNCCCSc1nnnn1C`, the inhibition was determined as 7.91%.
For `CCOC(=O)c1ccc(NC(=O)CSc2nc3c(c(=O)[nH]2)CN(Cc2ccccc2)CC3)cc1`, the inhibition is -16.3%.
As to `COc1ccc(-n2nc3c(N4CCC(C(=O)NCc5ccccc5C)CC4)nnc(C)c3c2C)cc1`, the inhibition came to 18.5%.
For `CCOC(=O)N1CCC(NC(=O)c2c(C)nn(-c3cccc(C)c3)c2-n2cccc2)CC1`, the inhibition turned out to be 5.32%.
As to `COc1ccccc1Nc1ncc2c(n1)CCN(Cc1ccc(C)s1)C2`, the inhibition is -1.5%.
As to `Cc1cc(F)ccc1NC(=O)CCS(=O)(=O)c1cc2c(cc1C)NC(=O)CO2`, the inhibition is -22.7%.
The value for `Cc1ccc2c(=O)c(C(=O)c3cccc(Cl)c3)cn(CC(=O)NC3CCCCC3)c2n1` was -2.95%.
The value for `Cc1ccc(N(CC(=O)N2CCN(c3ccc(F)cc3)CC2)S(=O)(=O)c2c(C)noc2C)cc1` was -4.93%; that for `CC(C)(C)C(=O)NCCc1nc2ccccc2n1CCCCOc1ccccc1` was -13.7%.
As to `CCOc1ccc(C2c3c(-c4cc(C)ccc4O)n[nH]c3C(=O)N2Cc2cccnc2)cc1OCC` (stereo not drawn), the inhibition was -0.0778%.
For `COc1ccccc1NC(=O)CC(C)n1nc(C)cc1C` (stereo not drawn) the value was 14.9%.
For `Cc1ccc(C2=NN(CC(=O)NCCc3ccccc3)C(=O)CC2)cc1` the value was 24.5%.
For the compound `Cc1cccc(OC(=O)CSc2nnc(-c3ccc4c(c3)OCO4)o2)c1C`, the inhibition turned out to be 9.52%.
The value for `Cc1cn(C)c(CC(=O)NCc2ccc(Cl)cc2)c1C(=O)O` was -18%; that for `COc1cccc(Cn2c(=O)n(CC3CCC(C(=O)NC(C)C)CC3)c(=O)c3sccc32)c1` (stereo not drawn) was -5.28%.
For `COc1cc(NC(=O)CN2C(=O)CCc3cc(Br)ccc32)cc(OC)c1OC` the value was -3.91%; for `Cc1ccc(CCNS(=O)(=O)c2ccc3c(c2)C(C(C)C)C(=O)N3)cc1` (stereo not drawn), -17.1%.
The value for `Cc1cccc(-c2noc(-c3cc(C(C)C)[nH]n3)n2)c1` was -1.93%; that for `CC(=O)N1c2ccccc2C(=O)C1N1CCN(c2cccc(Cl)c2)CC1` (stereo not drawn) was 6.64%.
Consider `CN(C)CCNC(=O)CN1C(=O)COc2ccc(C(C)(C)C)cc21`, for which the inhibition is active: 35.5%.
In the case of `COCCNC(=O)Cn1nc(-c2ccccc2)c2ccccc2c1=O`, the inhibition stood at 3.27%.
For `COc1cc(OC)c(C2CC(=O)Nc3ccc4ccccc4c32)cc1OC` (stereo not drawn) the value was 9.55%; for `COC(=O)c1ccccc1NC(=O)c1nc(-c2ccc(C)cc2)n2c1CCCCC2`, 21.1%; for `CC(NC(=O)Cn1c(=O)oc2cc(S(=O)(=O)N3CCCCCC3)ccc21)c1ccccc1` (stereo not drawn), -0.717%.
In the case of `CC(NC(=O)c1cc2c(=O)n3ccccc3nc2n(C(C)C)c1=N)c1ccccc1` (stereo not drawn), the inhibition worked out at 4.83%.
`CC(C)Cn1cc(NC(=O)NCc2cccc(Cl)c2)c2ccccc2c1=O`: the inhibition was -1.5%.
For `COc1ccc(NC(=O)c2cccc(N3CCCS3(=O)=O)c2)c(OC)c1` the value was 5.68%.
For `O=C(NCCC1=CCCCC1)c1ccc2c(c1)sc1nc(-c3ccc(F)cc3)cn12` the value was 23.4%; for `O=C(NCCc1ccccc1)c1ccc2c(c1)N(Cc1ccc(F)cc1)C(=O)CS2`, -5.32%.
For `COc1ccc(OCC(O)CNC(=O)Nc2cc(F)ccc2C)cc1` (stereo not drawn) the value was active: 38.2%.
Consider `CCN(CC)c1ccc(NC(=O)CN2CCN(CC(=O)Nc3ccc(Cl)cc3)CC2)cc1`, for which the inhibition is -5.69%.
On to `N#Cc1ccsc1NC(=O)CN1C(=O)NC2(CCCC2)C1=O`, for which the inhibition is active: 40.5%.
For `Cc1ccc(Cn2c(CCNC(=O)c3cccc(C)c3)nc3ccccc32)cc1` the value was 10.2%; for `COc1ccc(Cl)cc1NC(=O)CSC1=Nc2ccccc2C2=NC(CCC(=O)NCc3ccco3)C(=O)N12` (stereo not drawn), 2.69%; for `CCOC(=O)c1c(NC(=O)c2cc(=O)c3cc(C)ccc3o2)sc2c1CCCC2`, 1.51%.
The value for `Cc1cccc(NC(=O)CN2C(=O)C3(SCC(=O)N3c3ccccc3)c3ccccc32)c1` (stereo not drawn) was -8.09%.
Take `Cc1ccc(S(=O)(=O)N(C)C)cc1NC(=S)NCc1ccco1`: the inhibition was active: 39.7%.
For `Cc1ccc(S(=O)(=O)N2CCN(Cc3ccccc3Cl)CC2)cc1`, the inhibition is -7.55%.
For `CN1CCN(c2ncnc3c2cnn3-c2cccc(Cl)c2)CC1` the value was 13.5%; for `COc1cc(OC)c(OC)cc1/C=C/c1nc2cc3ccccc3cc2c(=O)n1-c1ccccc1Br`, 13.4%.
For the compound `COc1cc2c(c(OC)c1)C(c1cccc(F)c1F)CC(=O)N2` (stereo not drawn), the inhibition was -1.97%.
`COc1cccc(CNC(=O)c2ccc(-c3nc(CSc4ccccc4)c(C)o3)cc2)c1`: the inhibition was -0.603%.
`CCn1cc2nc(SCc3ccccc3Cl)n(Cc3ccc(OC)cc3)c(=O)c2n1`: the inhibition was -8.75%.
For `COc1ccc(-c2c(C)c3ccc(O)c(CN4CCC(C)CC4)c3oc2=O)cc1OC` the value was 10.9%.
For `CC(=O)Nc1ccccc1-c1nc2ccccc2n(C(C)C(=O)Nc2ccccc2C(F)(F)F)c1=O` (stereo not drawn) the value was 9.28%; for `CCCN(CCC)CCCNC(=O)c1cc2c(=O)n(C)c3ccccc3c2s1`, -5.4%; for `NC(=O)C1CCN(C(=O)COc2ccc3c4c(c(=O)oc3c2)CCCC4)CC1`, active: 30.8%.
Take `COc1ccc(C(Nc2ccccn2)c2ccc3ccc(C)nc3c2O)cc1C` (stereo not drawn): the inhibition was -18.3%.
The value for `COc1ccc(NC(=O)C(=O)NCCc2csc3nc(-c4ccccc4F)nn23)cc1OC` was -1%; that for `CC(=O)c1ccc(NS(=O)(=O)c2ccc3c(c2)NC(=O)CCS3)cc1` was 8.09%.
For `O=C(O)c1ccccc1C(=O)Nc1ccc(Br)c2cccnc12` the value was -18.3%; for `COc1ccc(C)cc1NC(=O)c1ccc(CN2CCN(c3ccccc3)CC2)cc1`, active: 88.8%.

The record behind these values is PubChem BioAssay AID485344 (National Center for Advancing Translational Sciences (NCATS), 2010).
